Measured values from paper PMC10668032.
This is one part of the list. At the low end of the ranking, values are background and their order means little.

biological target: SIX1-Q177R homeodomain (UniProt Q15475); experiment: universal protein binding microarray; details: Universal all-10-mer PBM (8x60K, AMADID 030236), 300 nM GST-tagged protein, Alexa Fluor 488 anti-GST; buffer, salt, pH and temperature not stated; high values mean tight binding; most listed sequences are background and not binding sites; double strand, one strand shown

Sequence | binding signal
GCATAAGA | -0.125 E-score
AGCTCGGG | 0.0662 E-score
CCAAACTC | -0.0893 E-score
ACACGCCC | 0.422 E-score
CGTACCGA | -0.198 E-score
AAGGTGAC | 0.112 E-score
ATCTCCCG | 0.0129 E-score
TAGGGGAA | -0.0545 E-score
GAGACGGA | -0.0971 E-score
GGTGATTA | -0.0502 E-score
AATAAGGA | -0.141 E-score
GCATCAGA | 0.188 E-score
GCCAAGGA | -0.018 E-score
ATCAACGG | -0.136 E-score
CACCCCGA | 0.346 E-score
ACTTAGGC | -0.171 E-score
ACCTGTTC | -0.0245 E-score
ACGGACGA | -0.14 E-score
CAGAGGCC | -0.167 E-score
CGGAGTAG | 0.127 E-score
ACCTTTTC | -0.165 E-score
ATGATGAG | -0.257 E-score
GTCATTCA | -0.0203 E-score
GGCGGACA | 0.111 E-score
CATTAGTC | -0.0518 E-score

Sequence | binding signal
CCTGAGAA | -0.0446 E-score
GCTTATAC | -0.165 E-score
GCATCGGC | -0.0433 E-score
TAATCAAA | 0.0343 E-score
CCGATGAC | 0.0812 E-score
GACGATCC | 0.12 E-score
ACGCACGA | 0.277 E-score
AGCTATAT | -0.261 E-score
GTCTTCGA | -0.0605 E-score
ATCGCAGC | -0.0827 E-score
GTGGGGAA | -0.05 E-score
CTTCTACC | 0.203 E-score
TCGAACAA | -0.172 E-score
AACAGATA | -0.098 E-score
GAGCAAAC | -0.213 E-score
CGGAAGCA | -0.0472 E-score
CAGCCATG | -0.0842 E-score
TATTCCCA | -0.167 E-score
CCGGTGAG | 0.0307 E-score
CGGGGGAC | 0.113 E-score
GATCGTTA | -0.0888 E-score
CGTGCGAA | -0.0273 E-score
ACAGTAAT | -0.0603 E-score
ATACCCAT | 0.132 E-score
GCGGTAGA | -0.0852 E-score

Sequence | binding signal
AACGATCC | -0.00388 E-score
CGCCAAGC | -0.178 E-score
AAGTATAG | -0.31 E-score
CCCTAGAC | 0.064 E-score
TGAAGGCA | -0.115 E-score
TGACCAAA | -0.2 E-score
ACCCACAT | 0.0969 E-score
CTAAACGA | -0.0511 E-score
CGTTGACA | 0.231 E-score
CCCTTAGC | -0.0905 E-score
CAATGTGG | 0.0263 E-score
AGTCTCCG | -0.174 E-score
CCGTCATC | -0.162 E-score
CGTTCACC | -0.137 E-score
AATATATG | 0.0814 E-score
GGGCGAAA | -0.146 E-score
ACGCTAGC | -0.052 E-score
AACACCTC | 0.456 E-score
ATCTGCTG | -0.284 E-score
CGACTGGA | 0.0117 E-score
CCGAGAAA | -0.127 E-score
ATCGTCCA | -0.114 E-score
AGTATCTA | 0.0927 E-score
GCTCTTCC | 0.0751 E-score
ATGAGTTC | -0.213 E-score

Sequence | binding signal
CGGAGGGA | 0.0529 E-score
ATGTCTGC | -0.152 E-score
AAATCTAT | -0.219 E-score
TAGAGAGA | -0.181 E-score
CATGAAGC | -0.121 E-score
CATCTTCC | -0.077 E-score
CATAACTC | 0.116 E-score
TAATGTGA | -0.0343 E-score
ACGGGATA | 0.0464 E-score
AAACCGGG | -0.0346 E-score
GGAGGAAC | -0.156 E-score
AAACGACC | -0.179 E-score
CAACCGCA | 0.0146 E-score
TCTTCTAA | 0.0555 E-score
CCACTGGG | -0.0414 E-score
GGGAGCGA | 0.0375 E-score
AGTCTCAA | -0.0788 E-score
CCTAGAAG | -0.128 E-score
AAAACCCC | 0.135 E-score
GCTATAGA | -0.117 E-score
ACGGCGAC | -0.013 E-score
ACCAGCGC | -0.0638 E-score
AGCTAGAG | -0.215 E-score
AGGGCTAT | 0.0605 E-score
ACAACCTA | 0.0255 E-score

Sequence | binding signal
ACGGGCCC | -0.0988 E-score
GTAGGGTA | 0.193 E-score
GGAGTTAC | 0.131 E-score
CTCCGTCA | -0.0678 E-score
GTCTATCA | -0.0433 E-score
CCTACTAG | -0.00787 E-score
AGGTCTCA | -0.0169 E-score
GGGGCTCA | -0.0282 E-score
CACGAGAG | 0.128 E-score
AACGCGTT | -0.0855 E-score
ATGTATTG | -0.15 E-score
ACGTTTAT | -0.233 E-score
CGTCAAAG | -0.141 E-score
AACCGTGG | -0.12 E-score
CCCAATGC | -0.174 E-score
GTCGGAAC | -0.0223 E-score
ACTTATAC | -0.0896 E-score
ACAGTATA | 0.0566 E-score
ACCTGAAG | -0.0528 E-score
ATGCGGAA | -0.0624 E-score
AGCTATGA | -0.0498 E-score
CCTGTCAC | 0.0707 E-score
CCTGTTAC | 0.0701 E-score
CAACATTC | -0.0808 E-score
GGTCTCGA | -0.0221 E-score

Sequence | binding signal
AACTAGAT | -0.0303 E-score
TCTCGCCA | -0.145 E-score
AATAGGTA | 0.00382 E-score
ACGGATCA | 0.172 E-score
CATTAACG | 0.122 E-score
AACCGACC | 0.0154 E-score
CAACAGAC | -0.142 E-score
GATCGAAC | -0.0707 E-score
CCCAGATC | 0.0955 E-score
GATTCAGA | -0.147 E-score
TACGTTGA | 0.0732 E-score
CCTAAAAG | -0.0547 E-score
AATCCCAG | 0.019 E-score
AGCCACGG | -0.0128 E-score
AATCGGAA | -0.00594 E-score
GAGCGGCC | -0.0204 E-score
GTGACGGA | -0.0818 E-score
ATGTCAGC | -0.0913 E-score
CGGATAAA | 0.211 E-score
GCTAACAA | -0.315 E-score
TGTCGTAA | 0.163 E-score
CCTCTACC | 0.0962 E-score
AATTGTCT | -0.0675 E-score
ACGCGATC | 0.0255 E-score
TATACGAA | -0.0279 E-score

Sequence | binding signal
GTTCAGAA | 0.18 E-score
TCTCTTCA | -0.256 E-score
ATTTCTAG | -0.0981 E-score
CTATATTA | -0.0984 E-score
GACATGGC | -0.0631 E-score
CTTGACAA | 0.0917 E-score
CCTTTGAA | -0.154 E-score
GGACAGGA | -0.247 E-score
GATTGTCA | -0.186 E-score
AGACCTGA | -0.155 E-score
CGGGTCCA | 0.128 E-score
TTAATTAA | -0.0342 E-score
ATCTACCC | 0.117 E-score
AAGGGAAA | -0.133 E-score
GCACGAGA | -0.0569 E-score
CTCTGTTA | 0.0956 E-score
TAACACTA | 0.384 E-score
ACGACGAA | -0.118 E-score
CGTGTACC | 0.436 E-score
GTCATACA | 0.102 E-score
CAGAGTCG | 0.124 E-score
CTTACGTA | -0.23 E-score
ATCAATCC | 0.0466 E-score
CCTAAAGC | -0.202 E-score
GGTGTCCA | 0.48 E-score

Sequence | binding signal
TCTGAGAA | -0.249 E-score
CATCTAGC | -0.172 E-score
GGACGATA | 0.113 E-score
ACCTAAAG | -0.0644 E-score
TCAGCAAA | -0.3 E-score
AATGGGGA | -0.21 E-score
ACAGAGAT | -0.181 E-score
AGACCATC | -0.249 E-score
ACATTGAA | -0.161 E-score
CACTATTC | 0.078 E-score
GTAGCTGA | 0.0461 E-score
ATTAGTAA | -0.15 E-score
CAAAACGA | -0.0491 E-score
AACAGACC | -0.0836 E-score
ACAACTGG | -0.00601 E-score
AGCGGAAT | -0.117 E-score
ATGCGTAC | 0.0811 E-score
GGCGCAAA | -0.0903 E-score
TAGCGGAA | -0.236 E-score
AGGTTCTC | -0.0803 E-score
AAGTGAGA | -0.201 E-score
GACCACGC | -0.0824 E-score
AAGAAAAA | -0.188 E-score
AACTTGGA | 0.107 E-score
CAGTAAAC | -0.0308 E-score

Sequence | binding signal
CGGTTCAG | -0.0447 E-score
CAGAACCC | 0.109 E-score
TCCGATCA | -0.0591 E-score
CAGATTCC | -0.0492 E-score
GATGTGTA | 0.19 E-score
AGAAGTCT | -0.233 E-score
CCCTCACG | 0.165 E-score
AGACATGC | -0.175 E-score
CCAACCGA | -0.0171 E-score
CTAGTTCA | -0.113 E-score
AAATTTCC | -0.188 E-score
ACACCACT | 0.483 E-score
CACCGTAC | 0.365 E-score
GAAAAGAC | -0.0422 E-score
AACATTCC | -0.265 E-score
CTTGTAAA | -0.032 E-score
CGAATCGC | 0.00297 E-score
AGACTTCC | -0.162 E-score
AAAGATTA | -0.183 E-score
